Results from the supplement of paper PMC4604168 (melanoma cell lines).
Some of the results follow. Many values rest on one well or one pass, so single values are uncertain.

What follows are compounds tested on A101D (assay: cell count relative to DMSO control; melanoma cells; higher = more viable cells). Details: library dose: standard library concentration; 72 h.
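Note: cells treated in 1,536-well plates, then fixed and DAPI-stained, with nuclei counted from automated high-throughput microscope images.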

Compound | cell count [%]
COc1ccc(C2=N[C@@H](c3ccc(Cl)cc3)[C@@H](c3ccc(Cl)cc3)N2C(=O)N2CCNC(=O)C2)c(OC(C)C)c1 [Nutlin-3] + O=C(O)[C@@H]1[O][Sb](=[O])([O][Sb]2(=[O])[O][C@H]([C@H](O)CO)[C@H](O)[C@H](C(=O)O)[O]2)[O][C@H]([C@H](O)CO)[C@@H]1O [stibogluconate] (first compound 0.5 µM, partner dose 10 µM) | 70.5
CC(C)C[C@H](NC(=O)[C@H](Cc1ccccc1)NC(=O)c1cnccn1)B(O)O [Bortezomib] + COc1ccc(-c2ccc3c(N4CCOCC4)nc(N4C[C@@H](C)O[C@@H](C)C4)nc3n2)cc1CO [KU0063794] (first compound 0.005 µM, partner dose 0.1 µM) | 11.6
Cn1c(=O)n(-c2ccc(C(C)(C)C#N)cc2)c2c3cc(-c4cnc5ccccc5c4)ccc3ncc21 + O=C1NC(=O)/C(=C/c2ccc(-c3ccc(F)cc3O)o2)S1 [AS252424] (first compound 0.02 µM, partner dose 5 µM) | 84.7
Cn1c(=O)n(-c2ccc(C(C)(C)C#N)cc2)c2c3cc(-c4cnc5ccccc5c4)ccc3ncc21 + CN(C)S(=O)(=O)c1ccc2c(c1)/C(=C/c1cc3c([nH]1)CCCC3)C(=O)N2 [SU6656] (first compound 0.02 µM, partner dose 2 µM) | 74.7
COc1ccc(C2=N[C@@H](c3ccc(Cl)cc3)[C@@H](c3ccc(Cl)cc3)N2C(=O)N2CCNC(=O)C2)c(OC(C)C)c1 [Nutlin-3] + Cn1cc(/C=C2\C(=O)Nc3cccnc32)c2ccccc21 [GW441756] (first compound 0.5 µM, partner dose 2 µM) | 65.2
Cc1cn(-c2cc(NC(=O)c3ccc(C)c(Nc4nccc(-c5cccnc5)n4)c3)cc(C(F)(F)F)c2)cn1 [nilotinib] + O=C(O)c1ccc(-c2c[nH]c3ncc(-c4ccccc4)cc23)cc1C1CCCC1 [GSK650394] (first compound 1 µM, partner dose 0.8 µM) | 92.7
Cc1cn(-c2cc(NC(=O)c3ccc(C)c(Nc4nccc(-c5cccnc5)n4)c3)cc(C(F)(F)F)c2)cn1 [nilotinib] + NC(=O)c1ccc(N(C(N)=O)c2c(F)cccc2F)nc1-c1ccc(F)cc1F [VX702] (first compound 1 µM, partner dose 2 µM) | 111
